# From the RNAGym collection of RNA variant scans (doi:10.7554/elife.90254)
# Read counts are not given, so values of variants with three or more changes are uncertain.
# B1: LINE1-mini (parent)
# chain: GGCAGAGCUCAACACAGCGUGGCAAAGUGGCUGUGGCUAGACUGCC
# Variants of: B1
# Experiment: self-cleavage, relative activity (ratio to wild type); higher = more cleavage; in vitro, sequencing; the parent is a self-cleaving ribozyme
row,Variant,self-cleavage
1,G1A U9C G21A A25C C31G A41G,0.04
2,G1C A4C C45U,0.01
3,G1C A4C A12G C13U A16C G44C,0.01
4,G1C C15A G17C C31G C42G,0
5,G1C G21U C31A,0.04
6,G1C A14G U28A U34A,0.03
7,G1C U34C G40U C45A,0.03
8,G1A G17A C18A,0.06
9,G1C G7A C15U G40C,0.06
10,G1C A14U G19C U38G A39G,0
11,G1A G7C U9C G29A G36U,0.06
12,G1C U32G G33C U38C,0
13,G1C A11G C15A G22C G27U,0
14,G1C A4U G7C,0.13
15,G1C G19C A24U,0.03
16,G1C A4U G22U A24U G27C A39C,0.01
17,G1A G5U G19U C31G G36C A39U G40U,0
18,G1C C3G C18G,0.06
19,G1C G5U G22U G40C U43G,0
20,G1C G5C C10G,0.02
21,G1C C8U C23A,0
22,G1C A12G G29A A41C,0
23,G1A G19U C23A G35U,0.11
24,G1C C13G A26G G30A A41U,0.03

row,Variant,self-cleavage
1,G1C C8U C18G C23G U32G,0.04
2,G1A G7U C10U G29C,0.01
3,G1A G7C G33U,0.31
4,G1C G2A C18U G29U,0.09
5,G1C C23G A25U A41C C42U,0.01
6,G1C G5U A6U G44A,0.02
7,G1C G2A G29A U32G G33U U38A,0.07
8,G1A U38C C42A G44C C45A,0.05
9,G1A G30U G40C C42A C46G,0.04
10,G1C U9C G33A,0.02
11,G1C C3G C37A,0.24
12,G1C U20G G27C C31A G36A,0.01
13,G1C A4C G29U,0.09
14,G1C A4U G7A U9G,0.04
15,G1C G5U C45G,0.05
16,G1A U9A A14G G44A,0.32
17,G1A G5C G17U G33C,0.06
18,G1C C13G C15U G33C G35A,0
19,G1C A25C U28C,0.05
20,G1A U9A G17C C18U,0.15
21,G1A U9G G17U G27C G35U,0.04
22,G1C G19U G21A U32G,0.02
23,G1C C8A C23U C45U,0.01
24,G1A U9A A25U G35U,0.2

row,Variant,self-cleavage
1,G1C C15A G19U,0.01
2,G1C C23A C45A C46G,0.04
3,G1A G29A G40A,0.19
4,G1C A6U C18U G30U A41U G44A,0.03
5,G1C C10A C18U G35U,0
6,G1C G5A C31G C45G,0.03
7,G1C A12C G17A A24U,0.02
8,G1C U32A C37U,0.01
9,G1C A6C C10G U20C A26G,0.01
10,G1C G2C C3U A12C C45U,0.13
11,G1C G2U C13U G30C,0.02
12,G1C G2U C3A A12G G40U,0.03
13,G1C C18A G36A G40U,0.03
14,G1C G2C G7C G27U G33U U34G,0.03
15,G1C A4G A16U,0.01
16,G1A G5U G17A A24U,0.06
17,G1C U28G G36U,0.06
18,G1C A11G C13A A14U C15A U34A G35C G36U,0.01
19,G1C A4U G27U C46G,0.09
20,G1A G5U G7A G29U,0
21,G1C G2U C13U G36C C46A,0.03
22,G1A G33U G40U C46A,0.02
23,G1C C23U U38G,0.02
24,G1C G5U A16C,0.04

row,Variant,self-cleavage
1,G1C C10U G17A C31G A39G,0.02
2,G1C G19U G35C U43G G44A,0.04
3,G1C C23G G33C C37A,0
4,G1C G44A C45A,0.01
5,G1A G36C C42A,0.04
6,G1A G5A A12C C13G G19C G22U,0.02
7,G1C G2C C37G,0.02
8,G1C A6G U28A G40C,0.02
9,G1A G5C G19C G27C G35C,0.03
10,G1A G7A G29U U34C C42G,0.09
11,G1C A24C A26C,0.02
12,G1A G5U A12C G36U,0.03
13,G1C G2A C13A G33C G44C,0.02
14,G1C C13G U20C G29A C45G,0.04
15,G1C C10A A12C A25C G29U U34A A41C,0.02
16,G1C C3G C18U C46G,0.1
17,G1C G2A C13A A25G,0.03
18,G1C G17C C23G G29U,0.01
19,G1C G5U C18A G29A C46A,0.02
20,G1C C15U C31U G35A,0.02
21,G1C G5C C42A,0
22,G1C C8G A14U G17U G22A A26C A39G,0.01
23,G1A G17C G35C C45A,0.02
24,G1C G22C A25U,0.09

row,Variant,self-cleavage
1,G1C C10G A12U G17A G44A,0
2,G1C G2C C13A C37G,0
3,G1A G36U G40A C42U,0.11
4,G1A G36C C37A,0.04
5,G1A G5U C18U,0.09
6,G1A U9G C13A A14C,0.05
7,G1A U9G G17U G19A G22A A26G,0.02
8,G1C A6G C23G U32C C42U,0
9,G1C A6G C31G G35U C37A A41U,0
10,G1C G7A A11G A16C,0.03
11,G1C G21U C37U,0.01
12,G1A G5A U43C,0.15
13,G1C A4C G21C G33U C37G,0.02
14,G1C G21C G36A C42U,0.04
15,G1C A16G U20C G35U,0.01
16,G1C G30C U38G,0.02
17,G1A U38A G40U,0.07
18,G1C A14U U28C,0.01
19,G1C G5U A14G G19U,0
20,G1C C13U G21U A41U,0.01
21,G1C A26U U34A,0.01
22,G1C A4G C37U,0.05
23,G1C A4U G30U A41G C46A,0.02
24,G1C A11G A16C C23A G27A,0

row,Variant,self-cleavage
1,G1A G7C A14C G17U,1.1
2,G1A G5A A26G,0.15
3,G1C A14G C23A G40A,0.03
4,G1A G30U G33C G40A,0.05
5,G1C G30U C42G,0.01
6,G1C G2U A26C,0.05
7,G1A G7U C13G A26C G29C,0.09
8,G1C G7U G21U,0.04
9,G1C C10A G22A G30U G36A C42A,0
10,G1A G7C G27A,0.37
11,G1A U43A C45A C46U,0.02
12,G1C U9C C15A G21U U34G C46U,0.01
13,G1C G22U U28C,0.08
14,G1C G30A C37U,0.08
15,G1A U9G U20C C45A,0.09
16,G1C G30C G36U U43C C45U,0.01
17,G1A U9C G29C C45A,0.06
18,G1C C3A C18U C23A U38G,0.02
19,G1C C18U A26C C31U,0.01
20,G1C G5C G19U,0.02
21,G1C A11G U20C U32C G36U U38A,0.01
22,G1C A6G C45A,0.02
23,G1C A25G G29C G33A G40A,0
24,G1C A4G C10U C13U C18U C37A,0.04

row,Variant,self-cleavage
1,G1C G19U C23A U32G,0.02
2,G1C A4G A12G U20G A26C C37A U43A,0
3,G1C C10A A39G,0
4,G1C C13U C31G U38A,0
5,G1A G17U U20C G27U G35U,0.03
6,G1A G7A A11G A25G A26U U38G,0.03
7,G1C C23U C42U,0.01
8,G1A G19U G30A G40U,0.1
9,G1C A24U G30C,0.02
10,G1A G33U U38A,0.05
11,G1C C3G A4C G33U,0.06
12,G1C A6U G17A C23U,0.04
13,G1C C10U A39C C42U,0
14,G1A U9A A12U G19C G29A,0.33
15,G1A G17A A26C,0.28
16,G1C C8A A16C,0.04
17,G1C G29U A41G,0
18,G1C G27U U34G G40U,0.01
19,G1C G21U G30A,0.37
20,G1C G27C C45G,0.05
21,G1C A6U C8G G29U,0
22,G1A G21C G36U,0.04
23,G1C A26C G27U U32G,0
